# According to PubChem BioAssay AID1347120 (National Center for Advancing Translational Sciences (NCATS), 2019):
# In all, about 390,000 compounds went through this assay and about 930 (0.24%) were called active. This list was built around the results that the source calls inconclusive (neither active nor inactive); the mix of calls is not that of the screen. Calls follow the shape of the dose curve; as a rule, active = well fitted activation curve with a large enough effect; inconclusive = small, poorly fitted or top-dose-only effect; inactive = no such curve, though single readings can be large or run the other way. Where the call is inconclusive, the potency comes from a doubtful curve fit.
# Assay: qHTS for Suppressors of FUS Proteinopathy: Primary screen using FUS-linked yeast assay; also: nearly all actives have a fitted effect of over 55% in size;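 as to growth rescue (activation): plate controls were DMSO vehicle for no effect and reference control for full effect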
# Details: S. cerevisiae FUS-expressing, OD600, 24 h; Potency: growth rescue; growth rescue (activation): at 76.6 µM (top of the series)
# Procedure, shortened: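 Cultures pregrown in 2.5% raffinose medium are shifted to minimal medium containing 2% galactose to express toxic FUS. Compounds are tested at several concentrations. After 24hr at 30C, growth is quantified at 600 nm absorbance.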
# Potency is read from the fitted curve at half-maximal effect; tags tell the direction and shape of the fitted curve.
Structure (SMILES),growth rescue (activation),Potency
C=CCNc1ncnc2c1ncn2[C@H]1CN(Cc2ccc(-c3ccccc3)cc2)C[C@@H](CO)O1,inactive: 42%,
C[C@@H]1CC=C[C@@H]2[C@H]1C(=O)N(Cc1ccccc1)[C@H]2c1cccc(Br)c1,inactive: -24.2%,
Cc1ccc(C2CC2C(=O)NNC(=S)Nc2cccc(Cl)c2)cc1 (stereo unspecified),,"inconclusive: 31.6 µM [activator, partial curve, poor fit]"
C[C@@]12CCC=C[C@H]1[C@H](c1ccc3ccccc3c1Br)N(Cc1ccccc1)C2=O,,"inconclusive: 28.2 µM [activator, partial curve]"
Cc1ccc2nc(-c3cccc(-c4cccc(Cl)c4)c3)c(NCc3ccccc3)n2c1,,"inconclusive: 50.1 µM [activator, single point]"
Cc1cc(C)c2cc(C#N)c(N3CCCC3)nc2c1,inactive: 7.3%,
CCn1cc(C(=O)N2CCN(c3cc(Cl)ccc3C)CC2)c(=O)c2cc(S(=O)(=O)N3CCOCC3)ccc21,,"inconclusive: 31.6 µM [activator, partial curve, poor fit]"
CC(C)(C)OC(=O)[C@H](CCCCN)NC(=O)c1[nH]cnc1C(=O)N[C@@H](Cc1ccccc1)C(=O)OCc1ccccc1,,"inconclusive: 25.1 µM [activator, single point]"
CCOc1ccc(-c2[nH]ncc2-c2ccc(OC)c(OC)c2)c(O)c1,,"inconclusive: 25.1 µM [activator, single point]"
CC1CCN(C(C(=O)Nc2ccc(C(C)C)cc2)c2ccc3c(c2)OCO3)CC1 (stereo unspecified),,"inconclusive: 2.51 µM [activator, full curve, poor fit]"
O=C(OCc1cn([C@H]2CN(C(=O)C3CCCCC3)[C@@H](c3ccccc3)C[C@@H]2O)nn1)c1ccccc1,,"inconclusive: 22.4 µM [activator, partial curve]"
Cc1cccc(S(=O)(=O)N(C)C[C@H]2OCc3cnnn3CCCC(=O)N([C@H](C)CO)C[C@H]2C)c1,inactive: 1.26%,
CC(=O)c1ccc(NS(=O)(=O)c2cnc(N)nc2)cc1,inactive: -2.91%,
O=C(CCC1CCCCC1)Nc1ccc(C(=O)c2ccncc2)cc1,,"inconclusive: 22.4 µM [activator, single point]"
O=C(Nc1ccccc1)[C@@H]1CC=C[C@@H]2CCN(Cc3ccc(Cl)c(Cl)c3)C(=O)[C@@H]21,,"inconclusive: 31.6 µM [activator, partial curve]"
CCOc1ccc(CN2C(=O)c3ccccc3Sc3ccc(C(=O)NCCc4ccccc4)cc32)cc1,,"inconclusive: 22.4 µM [activator, partial curve, poor fit]"
